PubChem BioAssay (NCATS)
The inconclusive results got no clear call from the source. Where the call is inconclusive, the potency comes from a doubtful curve fit.

What follows are compounds tested against Retinal dehydrogenase 2 (Homo sapiens) (UniProt O94788) (assay: qHTS for Inhibitors of the Aldehyde Dehydrogenase Family (ALDH1A2) Confirmation screens (AID 2061314; note: nearly all actives have a fitted effect of over 65% in size)). Conditions: ALDH1A2 enzyme inhibition qHTS confirmation; series mostly up to 45.9 µM; active = well fitted inhibition curve with a large enough effect; inconclusive = small, poorly fitted or top-dose-only effect; inactive = no such curve, though single readings can be large or run the other way.
Potency is the fitted concentration of half-maximal effect; tags give direction and shape of the fitted curve.

Potency, inconclusive:
CCN(Cc1ccncc1)C(=O)c1cc(-c2cnc(C)nc2)nc2cc(F)ccc12 2.24 µM [inhibitor, full curve], N#Cc1ccc(S(=O)(=O)N[C@H](Cc2ccccc2)C(=O)N2CCOCCNC(=O)CC2)cc1 0.794 µM [inhibitor, full curve, poor fit], CC(C)c1ccc([S+](=O)([O-])c2nnn3c2nc(NC2CC2)c2ccccc23)cc1 3.98 µM [inhibitor, partial curve]
